Out of some 220,000 compounds screened, about 16,000 (7.3%) were called active. This list was built around the results that the source calls inconclusive (neither active nor inactive); the mix of calls is not that of the screen. Calls follow the shape of the dose curve; as a rule, active = well fitted inhibition curve with a large enough effect (not every such curve was filed as active); inconclusive = small, poorly fitted or top-dose-only effect, or another doubt; inactive = no such curve, though single readings can be large or run the other way. Potencies of inconclusive entries are left out as doubtful fits.
target: Aldehyde dehydrogenase 1A1 (Homo sapiens) (UniProt P00352); assay: qHTS Assay for Inhibitors of Aldehyde Dehydrogenase 1 (ALDH1A1); details: Purified ALDH1A1, NADH fluorescence, propionaldehyde substrate; series mostly up to 75.3 µM; activity, negative = inhibition: at the top concentration;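 as to activity, negative = inhibition: plate controls were no enzyme wells and a reference inhibitor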
Potency is read from the fitted curve at half-maximal effect; tags tell the direction and shape of the fitted curve.

Sequence of UniProt P00352 (P00352 whole entry, looked up): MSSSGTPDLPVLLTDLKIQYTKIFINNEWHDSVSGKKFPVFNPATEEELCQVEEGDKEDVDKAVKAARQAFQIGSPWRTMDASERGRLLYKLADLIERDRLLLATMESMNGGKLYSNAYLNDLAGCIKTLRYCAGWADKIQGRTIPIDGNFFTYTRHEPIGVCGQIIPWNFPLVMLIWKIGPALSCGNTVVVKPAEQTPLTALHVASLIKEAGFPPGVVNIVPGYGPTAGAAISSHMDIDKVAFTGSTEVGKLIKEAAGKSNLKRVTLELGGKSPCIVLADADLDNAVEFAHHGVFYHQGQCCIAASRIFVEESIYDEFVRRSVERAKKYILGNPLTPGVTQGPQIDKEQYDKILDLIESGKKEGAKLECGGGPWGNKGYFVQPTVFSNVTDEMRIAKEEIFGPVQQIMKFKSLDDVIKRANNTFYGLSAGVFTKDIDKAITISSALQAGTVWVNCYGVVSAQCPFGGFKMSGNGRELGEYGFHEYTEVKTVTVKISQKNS

| SMILES | Potency | activity, negative = inhibition |
| --- | --- | --- |
| CC(NC(=O)c1ccco1)C(=O)Nc1nc(-c2ccccn2)cs1 (centres undefined) | inconclusive [inhibitor, single point] |  |
| N/C(Cc1ccc([N+](=O)[O-])cc1)=N\OC(=O)C1CCCCC1 | inconclusive [inhibitor, single point] |  |
| CC(C)CC(c1nnnn1Cc1ccc(F)cc1)N1CCC(C(N)=O)CC1 (centres undefined) |  | inactive: 11.8% |
| CS(=O)(=O)N(CC(=O)Nc1cccnc1)c1ccc2c(c1)OCCO2 |  | inactive: 15.2% |
| c1coc(C2Nc3ccccc3C3OCCC23)c1 (centres undefined) | inconclusive [inhibitor, single point] |  |
| CN1CCN(c2ncnc3ccc(-c4cccc(C#N)c4)cc23)CC1 | active: 10 µM |  |
| COC(=O)c1ccccc1-c1ccc(/C=N/NC(=O)c2cc3ccccc3o2)o1 | inconclusive [inhibitor, single point] |  |
| COc1cc2c(cc1OC)CN(CC(=O)NC(=O)NC(C)(C)C)CC2 |  | inactive: 5.86% |
| CCCCCCN1N=C(C)C(C(=O)c2ccc(Cl)cc2)C1=O (centres undefined) | inconclusive [inhibitor, single point] |  |
| O=c1c(-c2cc(F)cc(F)c2)nc2cnc(N3CCOCC3)nc2n1-c1ccccc1 | inconclusive [inhibitor, partial curve] |  |
| CCOc1ncccc1C(=O)Nc1ccc(Cl)c(S(=O)(=O)N2CCCC2)c1 | active: 4.47 µM |  |
| CCC(CC)C(=O)Nc1cccc(/C(C)=N\NC(=O)c2ccc(C)s2)c1 | inconclusive [inhibitor, single point] |  |
| COc1ccccc1-n1nnnc1SCc1cc2c(cc1Br)OCO2 | active: 4.47 µM |  |
| CCCCc1noc2c1/C(=N\O)CC(c1ccccc1)C2 (centres undefined) |  | inactive: -0.887% |
| CC(C)(C)c1ccc(-c2nn(CCC#N)cc2/C=N/O)cc1 |  | inactive: 0.846% |
| Cc1onc(-c2c(Cl)cccc2Cl)c1COC(=O)c1ccc(Cl)cc1 |  | inactive: -1.64% |
| Cc1onc(-c2ccccc2Cl)c1C(=O)Nc1nnc(-c2ccc(F)cc2)s1 | inconclusive [inhibitor, single point] |  |
| COc1ccc(N=CC2=C(O)CC(c3ccccc3)CC2=O)c(OC)c1 (centres undefined) | active: 14.1 µM |  |
| COc1cc(NS(=O)(=O)c2ccc(NC(=O)COc3ccc(C)cc3)cc2)nc(OC)n1 | inconclusive [inhibitor, single point] |  |
| CCOC(=O)Cn1c(CN2CCN(C(c3ccccc3)c3ccccc3)CC2)nc2c1c(=O)n(C)c(=O)n2C |  | inactive: -11% |
| COc1cc(SC#N)ccc1N=Cc1c(C)[nH]n(-c2ccc(Cl)cc2)c1=O | active: 2.51 µM |  |
| Cc1ncoc1C(=O)Nc1ncc([N+](=O)[O-])s1 | inconclusive [inhibitor, single point] |  |
| Cc1cc(C)c2cc3c(N)c(C(=O)N4CCOCC4)sc3nc2c1 | inconclusive [inhibitor, single point] |  |
| COCCN(C(=O)CNC(=O)c1ccco1)C(C(=O)NC1CCCC1)c1cccs1 (centres undefined) |  | inactive: 5.84% |
| O=C(COC(=O)Cc1ccccc1F)Nc1ccc(F)cc1F | inconclusive [inhibitor, single point] |  |

| SMILES | Potency | activity, negative = inhibition |
| --- | --- | --- |
| O=C1CCC(C(=O)N(Cc2cccs2)C2(C(=O)NC3CCCCC3)CCCCC2)N1 (centres undefined) | inconclusive [inhibitor, single point] |  |
| CC(C)C(=O)Nc1nnc(CCN2CCCCC2)s1 |  | inactive: -2.81% |
| O=c1c2cc(Cl)ccc2oc2nc3n(c(=O)c12)CCCS3 | inconclusive [inhibitor, full curve] |  |
| O=C(Cn1nc(-c2ccccc2F)ccc1=O)Nc1ccc(S(=O)(=O)N2CCCCCC2)cc1 | inconclusive [inhibitor, single point] |  |
| COc1cccc(/C=N/NC(=O)CO/N=C(\C)c2cccs2)c1OC | inconclusive [inhibitor, single point] |  |
| COc1cccc(CN2CCN(C(=O)CC(C)C)CC2)c1 | inconclusive [inhibitor, single point] |  |
| Cn1cccc1-c1nc2ccccc2n1C | inconclusive [inhibitor, single point] |  |
| COC(=O)CSc1nnc(CNC(=O)c2ccc(S(=O)(=O)N3CCOCC3)cc2)n1C |  | inactive: -1.96% |
| CSc1nc(Sc2ccccc2)c2ccccc2n1 | inconclusive [inhibitor, single point] |  |
| CC1(C(=O)N(c2ccccc2)C(C(=O)NC2CCCC2)c2ccccn2)CC(=O)N=C2C=CC=CN21 (centres undefined) | inconclusive [inhibitor, partial curve] |  |
| CC(C)C(=O)NCc1cc(-c2ccc(Cl)cc2)no1 |  | inactive: 14.5% |
| S=c1[nH]ncn2c1cc1oc3ccccc3c12 | inconclusive [inhibitor, single point] |  |
| Fc1c(F)c(F)c(CSc2nc3ccccc3[nH]2)c(F)c1F |  | inactive: 3.64% |
| CCOC(=O)C1CCCN(C(=O)COc2ccc(S(=O)(=O)N(CC)c3ccccc3)cc2)C1 (centres undefined) |  | inactive: -8.95% |
| Cc1ccccc1NC(=O)Cn1c(CCC(=O)O)ccc1-c1cccs1 | inconclusive [inhibitor, single point] |  |
| O=S(=O)(NCCn1cccc1)c1ccc2ccccc2c1 | inconclusive [inhibitor, single point] |  |
| CCOC(=O)CN(C(=O)COc1ccc2c(C)cc(=O)oc2c1)c1ccc(OCC)cc1 | inconclusive [inhibitor, single point] |  |
| COc1cc2cc(C(=O)O)n(C)c2c(OC)c1OC | inconclusive [inhibitor, partial curve] |  |
| Cn1cc(Br)c(-c2cccc(NC(=O)CC(C)(C)CC(=O)O)c2)n1 | inconclusive [inhibitor, single point] |  |
| Cc1cc(C)n2cc(CSc3nc4ccccc4[nH]3)nc2n1 | inconclusive [inhibitor, single point] |  |
| O=C(COc1ccccc1)Nc1sc2c(c1C(=O)NCc1cccnc1)CCCC2 | active: 20 µM |  |
| NC(=O)c1ccccc1NC(=S)NC(=O)CCc1ccccc1 | active: 12.6 µM |  |
| COc1cc(OC)cc(C(=O)Nc2cc(-c3cn4cccnc4n3)ccc2C)c1 | inconclusive [inhibitor, partial curve] |  |
| CCNC(=O)CC1C(=O)N(c2ccc(OC)cc2)C(=O)N1Cc1ccc(OC)cc1 (centres undefined) |  | inactive: -1.57% |
| CC(C)[C@@H](C(=O)N1CCNCC1)n1cc(CCO)nn1 |  | inactive: -2.08% |

| SMILES | Potency | activity, negative = inhibition |
| --- | --- | --- |
| COc1ccc(NC(=O)CSc2ncn(-c3ccccc3)n2)cc1Cl | inconclusive [inhibitor, single point] |  |
| Cc1ccc(CN2CCN(/N=C/c3ccco3)CC2)c(C)c1 | inconclusive [inhibitor, single point] |  |
| COc1cc2c(cc1NC(=O)COc1ccc3ccccc3c1)oc1ccccc12 | inconclusive [inhibitor, single point] |  |
| O=C(NC(=S)NCc1ccc2c(c1)OCO2)c1ccccc1 | inconclusive [inhibitor, single point] |  |
| COCCN(Cc1cc2cc3c(cc2nc1Cl)OCO3)C(=O)c1ccc(C)cc1 |  | inactive: 4.26% |
| CCCCc1ncc(CN2CCC(CC3CCCCO3)(C(=O)OCC)CC2)[nH]1 (centres undefined) |  | inactive: -2.1% |
| CCOc1ccc(N2C(=O)CN(C)C2=S)cc1 |  | inactive: 4.55% |
| CN(Cc1ccccc1)C(=O)CN(Cc1ccccc1)S(C)(=O)=O | inconclusive [inhibitor, single point] |  |
| NC(=O)CSc1cn(Cc2ccccc2)c2ccccc12 | active: 7.94 µM |  |
| Cc1nc2ccccn2c1-c1ccnc(SCc2ccc(Cl)cc2)n1 | inconclusive [inhibitor, partial curve] |  |
| Cc1cc(=O)n2c3ccccc3n(CC(O)CN3CCCCC3)c2c1C#N (centres undefined) | inconclusive [inhibitor, single point] |  |
| CCN(CC)c1ccc(NC(=O)c2cccc(OC)c2)c(C)c1 |  | inactive: -9.26% |
| CC1(C)Cc2c(ccc3ccccc23)C(=O)N1 | inconclusive [inhibitor, single point] |  |
| COc1cc(/C=C/C(=O)OCC(=O)NCCN2C(=O)CSC2=O)ccc1OC(F)F | inconclusive [inhibitor, single point] |  |
| O=C(NC1CCCc2ccccc21)c1cccnc1 (centres undefined) | inconclusive [inhibitor, single point] |  |
| O=c1cc(N2CCCCC2)c(-c2ccccc2)nn1Cc1ccccc1 | active: 15.8 µM |  |
| CC1(C(=O)NCCCNc2ncc(C(F)(F)F)cc2Cl)C=CC2(CCCCC2)N1C(=O)c1ccccc1 (centres undefined) | inconclusive [inhibitor, single point] |  |
| Nc1nc(N)c2c(ccc3nccc32)[nH]1 | inconclusive [inhibitor, partial curve] |  |
| COc1ccc(NC(=O)C(C/C=C(/C)Cl)C(C)=O)cc1 (centres undefined) |  | inactive: 4.49% |
| COc1ccc2oc(=O)c(C(=O)N3c4ccccc4CC3C)cc2c1 (centres undefined) | inconclusive [inhibitor, single point] |  |
| Cc1cc(/C=C2\NC(=O)NC2=O)c(C)n1-c1ccc(N2CCOCC2)cc1 | active: 25.1 µM |  |
| FC(F)(F)c1ccc(CN2C[C@@H]3C(c4ccccc4)C4(c5ccccc5)CC3(C4)[C@H]2c2ccccc2)cc1 (some centres undefined) | inconclusive [inhibitor, single point] |  |
| CCOC(=O)c1c(NC(=O)CNC2CCCCC2)sc(C)c1C | inconclusive [inhibitor, single point] |  |
| COc1cc(OC)cc(C(=O)NC(=S)Nc2cc3oc4ccccc4c3cc2OC)c1 | inconclusive [inhibitor, single point] |  |

From PubChem BioAssay AID1030 (National Center for Advancing Translational Sciences (NCATS), 2008)
